Reference: patent publication US20210269548A1 (Kyowa Kirin, published 2021)

T1: human CSPG5 (human, UniProt O95196 31-566)
T1 construct: Full-length gene expressed on cell membrane (Expi293F, L929); also called human CSPG5/Expi293F cells; human CSPG5/L929#09
T1 sequence: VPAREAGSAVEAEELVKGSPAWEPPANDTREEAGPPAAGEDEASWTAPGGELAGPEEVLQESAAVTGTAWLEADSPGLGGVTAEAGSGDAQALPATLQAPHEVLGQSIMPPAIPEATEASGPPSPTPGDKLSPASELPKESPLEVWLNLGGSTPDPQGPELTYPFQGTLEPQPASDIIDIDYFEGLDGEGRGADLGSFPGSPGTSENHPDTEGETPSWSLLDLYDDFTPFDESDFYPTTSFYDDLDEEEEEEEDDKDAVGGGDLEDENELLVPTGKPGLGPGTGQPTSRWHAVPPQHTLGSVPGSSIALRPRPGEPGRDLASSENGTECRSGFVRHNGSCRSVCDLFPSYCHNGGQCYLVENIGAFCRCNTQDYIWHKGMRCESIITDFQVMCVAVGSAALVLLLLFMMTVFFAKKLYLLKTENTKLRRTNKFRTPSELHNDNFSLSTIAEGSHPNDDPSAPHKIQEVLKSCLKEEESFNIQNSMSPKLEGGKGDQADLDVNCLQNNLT

T2: mouse CSPG5 (mouse, UniProt Q71M36 31-566)
T2 construct: Full-length gene expressed on Expi293F cells; also called mouse CSPG5/Expi293F cells
T2 sequence: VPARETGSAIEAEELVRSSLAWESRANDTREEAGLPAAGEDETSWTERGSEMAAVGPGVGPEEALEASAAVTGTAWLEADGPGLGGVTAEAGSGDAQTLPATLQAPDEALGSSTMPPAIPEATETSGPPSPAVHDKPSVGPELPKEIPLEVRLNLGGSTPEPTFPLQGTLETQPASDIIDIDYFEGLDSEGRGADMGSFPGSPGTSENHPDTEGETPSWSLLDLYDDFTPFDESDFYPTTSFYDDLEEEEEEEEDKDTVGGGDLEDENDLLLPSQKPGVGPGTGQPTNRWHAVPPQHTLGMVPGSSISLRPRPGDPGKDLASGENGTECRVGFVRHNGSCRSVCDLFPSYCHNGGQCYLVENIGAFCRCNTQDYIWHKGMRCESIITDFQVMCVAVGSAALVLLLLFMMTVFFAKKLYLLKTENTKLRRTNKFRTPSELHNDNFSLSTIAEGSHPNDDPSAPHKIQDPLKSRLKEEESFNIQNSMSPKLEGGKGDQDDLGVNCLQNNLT

T3: monkey CSPG5 (monkey (rhesus monkey), UniProt O95196 31-566 (human entry))
T3 construct: Full-length gene expressed on Expi293F cells; also called monkey CSPG5/Expi293F cells; rhesus monkey CSPG5
T3 chain: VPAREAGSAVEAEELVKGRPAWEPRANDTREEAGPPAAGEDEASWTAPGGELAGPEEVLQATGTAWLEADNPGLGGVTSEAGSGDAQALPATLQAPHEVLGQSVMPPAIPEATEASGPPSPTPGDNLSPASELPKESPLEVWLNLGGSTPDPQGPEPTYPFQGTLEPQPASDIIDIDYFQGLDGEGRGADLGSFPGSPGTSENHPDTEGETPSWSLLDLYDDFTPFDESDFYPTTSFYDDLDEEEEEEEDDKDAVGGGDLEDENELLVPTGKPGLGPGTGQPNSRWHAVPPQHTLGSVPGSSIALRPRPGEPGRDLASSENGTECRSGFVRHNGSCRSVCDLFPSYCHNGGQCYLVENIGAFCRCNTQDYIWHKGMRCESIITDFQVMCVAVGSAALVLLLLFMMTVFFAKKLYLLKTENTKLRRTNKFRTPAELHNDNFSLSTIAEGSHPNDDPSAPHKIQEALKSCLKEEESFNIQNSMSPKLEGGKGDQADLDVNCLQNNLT


Columns and labels:
[1] = biological target: mouse CSPG5-GST (mouse); experiment: SPR Biacore T-100, antibody captured, mouse CSPG5-GST analyte
Procedure: The affinity of the anti-CSPG5 antibodies, the CSPG5202 IgG4PE(R409K), and the AVM IgG4PE(R409K) CSPG5202 dscFv produced in Example 2 for human CSPG5 and mouse CSPG5 was measured using Biacore T-100 (GE Healthcare).
Each of the antibodies was immobilized on a […] sensor chip using a Human antibody Capture kit, and the binding ability was evaluated using human CSPG5-GST and mouse CSPG5-GST produced in Example 4 as analytes. The obtained sensorgram was analyzed with BIA evaluation software, and the dissociation constant (KD value) was calculated.

[2] = biological target: T1, human CSPG5; experiment: FACS, 10 µg/mL antibody, human CSPG5/Expi293F vs Expi293F
Procedure: (§1) Expi293F cells, human CSPG5/Expi293F cells, mouse CSPG5/Expi293F cells, and monkey CSPG5/Expi293F cells were separately suspended in Staining Buffer (SB) of PBS comprising 0.1% NaN₃ and 1% FBS and dispensed in a round-bottom 96-well plate (manufactured by Becton, Dickinson and Company). After centrifugation (2000 rpm, 4° C., 2 minutes), the supernatant was removed, and to the resulting pellet, 10 μg/mL of each antibody obtained in Example 2 was added to suspend the pellet, and the resulting suspension was left to stand for 30 minutes at ice temperature. After further centrifugation (2000 rpm, 4° C., 2 minutes), the supernatant was removed, and the resulting pellet was washed with SB, and thereafter, 1 μg/mL of an RPE fluorescently labeled goat anti-human antibody (manufactured by Southern Biotech, Inc.) was added thereto, and the resultant was incubated for 30 minutes at ice temperature. After washing with SB, the cells were suspended in SB, and the fluorescence intensity of each cell was measured using a flow cytometer FACS CANTO II (manufactured by Becton, Dickinson and Company). Note that as a negative control, 10 μg/mL of the anti-AVM antibody was used.
(§2) The detection results were analyzed, and a mean fluorescence intensity (MFI) was calculated using a geometric mean. Further, with respect to the MFI when the concentration of each antibody was 10 μg/mL, the ratio of the MFI (mean fluorescence intensity ratio) between the human CSPG5/Expi293F cells and the Expi293F cells (parent cell line) was calculated. Also for the monkey CSPG5/Expi293F cells and the mouse CSPG5/Expi293F cells, the mean fluorescence intensity ratio relative to the Expi293F cells (parent cell line) was calculated by the same procedure, and the results are shown in Table 3.

[3] = biological target: T2, mouse CSPG5; experiment: FACS, 10 µg/mL antibody, mouse CSPG5/Expi293F vs Expi293F
Procedure: as §1, §2

[4] = biological target: T3, monkey CSPG5; experiment: FACS, 10 µg/mL antibody, monkey CSPG5/Expi293F vs Expi293F
Procedure: as §1, §2

Row | Binder | Kd [1] [µM] | Mean fluorescence intensity ratio [2] | Mean fluorescence intensity ratio [3] | Mean fluorescence intensity ratio [4]
1 | CSPG5227 scFv-hG4PE(R409K) (Fc fusion, also called anti-CSPG5 scFv-Fc antibody) VH: [omitted - about 100 residues]LKRTQGFDYWGQGTLVTVSS VL: DIVMTQSPDSLAVSLGERATINCKSSQSVLYSSNNKNYLAWYQQKPGQPPKLLIYWASTRESGVPDRFSGSGSGTDFTLTISSLQAEDVAVYYCQQSNRLPPTFGQGTKVEIK | ≤ 0.01 | 5.29 ratio to parent cell line | 10 ratio to parent cell line | 4.09 ratio to parent cell line
2 | CSPG5222 scFv-hG4PE(R409K) (Fc fusion, also called anti-CSPG5 scFv-Fc antibody) VH: [omitted - about 100 residues]IKQTGAFDYWGQGTLVTVSS VL: DIVMTQSPDSLAVSLGERATINCKSSQSVLYSSNNKNYLAWYQQKPGQPPKLLIYWASTRESGVPDRFSGSGSGTDFTLTISSLQAEDVAVYYCQQLVQGPPTFGQGTKVEIK | ≤ 0.01 | 2.52 ratio to parent cell line | 2.94 ratio to parent cell line | 2.82 ratio to parent cell line
3 | CSPG5208 scFv-hG4PE(R409K) (Fc fusion, also called anti-CSPG5 scFv-Fc antibody) VH: [omitted - about 100 residues]YTREGSFDYWGQGTLVTVSS VL: DIVMTQSPDSLAVSLGERATINCKSSQSVLYSSNNKNYLAWYQQKPGQPPKLLIYWASTRESGVPDRFSGSGSGTDFTLTISSLQAEDVAVYYCQQALERAPTFGQGTKVEIK | ≤ 0.01 | 16.9 ratio to parent cell line | 16.6 ratio to parent cell line | 6.96 ratio to parent cell line
4 | CSPG5205 scFv-hG4PE(R409K) (Fc fusion, also called anti-CSPG5 scFv-Fc antibody) VH: [omitted - about 100 residues]TKPNNAFDYWGQGTLVTVSS VL: DIVMTQSPDSLAVSLGERATINCKSSQSVLYSSNNKNYLAWYQQKPGQPPKLLIYWASTRESGVPDRFSGSGSGTDFTLTISSLQAEDVAVYYCQQTATQPLTFGQGTKVEIK | ≤ 0.01 | 28.5 ratio to parent cell line | 30.1 ratio to parent cell line | 9.58 ratio to parent cell line

Second part, the binder after the results:

Row | Kd [1] [µM] | Mean fluorescence intensity ratio [2] | Mean fluorescence intensity ratio [3] | Mean fluorescence intensity ratio [4] | Binder
5 | ≤ 0.01 |  |  |  | CSPG5202 IgG4PE(R409K) (antibody, V domains shown, variable regions of CSPG5202 on CL and CH of the human IgG4 variant (S228P, L235E, R409K); also called anti-CSPG5-IgG4 antibody; anti-CSPG5202-IgG4 antibody) VH: [omitted - about 100 residues]ISKTQGFDYWGQGTLVTVSS VL: DIVMTQSPDSLAVSLGERATINCKSSQSVLYSSNNKNYLAWYQQKPGQPPKLLIYWASTRESGVPDRFSGSGSGTDFTLTISSLQAEDVAVYYCQQSRTRRPTFGQGTKVEIKR
6 | ≤ 0.01 | 6.16 ratio to parent cell line | 5.39 ratio to parent cell line | 3.69 ratio to parent cell line | CSPG5202 scFv-hG4PE(R409K) (Fc fusion, also called anti-CSPG5 scFv-Fc antibody) VH: [omitted - about 100 residues]ISKTQGFDYWGQGTLVTVSS VL: DIVMTQSPDSLAVSLGERATINCKSSQSVLYSSNNKNYLAWYQQKPGQPPKLLIYWASTRESGVPDRFSGSGSGTDFTLTISSLQAEDVAVYYCQQSRTRRPTFGQGTKVEIK
